From ChEMBL document CHEMBL1201862, “PubChem BioAssay data set” (2004) come the findings set out here.

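Briefly, cells in 96-well plates were exposed to five compound concentrations for 48 h, and endpoints were estimated by linear interpolation. Abbreviation: GI50, concentration required for 50% inhibition of growth.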 Active and inactive are the calls of the source. Cut-off read from the data, not from the text of the source: active = GI50 up to about 1.1 µM and inactive = higher.

The experiment relates to NCI-H322M. The experiment is described as follows: NCI-60 cell line screen, 48 h.
Regarding `OC1(c2ccc3ccccc3c2)c2c(c3ccccc3c3ccccc23)C2=NCCN21` (stereo not drawn), the GI50 is inactive: 6.5 µM.

As for `Cc1ccc(S(=O)(=O)NNC(=O)Nc2ccc(Cl)cc2)cc1`, the GI50 is inactive: > 100 µM.

In the case of `C=CS(=O)(=O)c1c2cc(OC)ccc2nc2ccc(OC)cc12`, the GI50 was inactive: 14.9 µM.

As for `CN(C)/C=C/c1c2c(nc3ccccc13)C(=O)c1cccnc1C2=O`, the GI50 was active: 0.649 µM.

With `COc1cc(/C=C/c2ccc(OC)c(OC)c2)oc(=O)c1`, the GI50 is inactive: > 250 µM.

With `[N-]=[N+]=NC1C(O)C(CO)OC1n1ccc(=O)[nH]c1=O` (stereo not drawn), the GI50 was inactive: > 875 µM.

As for `CNc1ncccc1Nc1cc(=O)n2c3cccnc3n(C)c2c1`, the GI50 was inactive: > 100 µM.

In the case of `COc1ccc(-c2cc3ccccc3[nH]c2=O)cc1OC`, the GI50 was inactive: > 100 µM.

As to `C1COC2SC3=C(SC(=C4SC5=C(SCCS5)S4)S3)SC2O1` (stereo not drawn), the GI50 was inactive: > 100 µM.

Regarding `O=C(O)c1c2c(cc3c(=O)cc(-c4ccccc4)oc13)CCCC2`, the GI50 was inactive: > 100 µM.

In the case of `C[C@H](CCC(=O)O[C@@H]1CC[C@@]2(C)C(CC[C@H]3[C@@H]4CC[C@H]([C@H](C)CCc5nc6ccccc6[nH]5)[C@@]4(C)CC[C@@H]32)C1)[C@H]1CC[C@H]2[C@@H]3CCC4C[C@H](O)CC[C@]4(C)[C@H]3CC[C@]12C` (stereo partly drawn), the GI50 was inactive: > 100 µM.

For `COC(=O)NC(=O)c1cn(CCCOC(=O)CCCCCCCCC(=O)OCCCn2cc(C(=O)NC(=O)OC)c(=O)[nH]c2=O)c(=O)[nH]c1=O`, the GI50 was inactive: > 100 µM.

Take `CC12CC(C#N)(C#N)C(C#N)(CO1)C(=N)O2` (stereo not drawn): the GI50 was inactive: > 100 µM.

Regarding `CN(C)C(=O)OC(Cn1cncn1)(Cn1cncn1)c1ccc(Cl)cc1Cl`, the GI50 is inactive: > 100 µM.

Take `C=CC(O)(CBr)CCC(Br)C(C)(C)Cl` (stereo not drawn): the GI50 is inactive: > 10 µM.

As to `Nc1nc2cc(Cl)ccc2n1N`, the GI50 is inactive: > 100 µM.

On to `CCOC(=O)/C=C(/C(=O)OCC)n1ccc(N)nc1=O`, for which the GI50 was inactive: > 100 µM.

With `O=C1CCC2(O)c3ccccc3C2Cc2ccccc21` (stereo not drawn), the GI50 was inactive: > 100 µM.

As for `CCc1cc2c(cc1CCCC(=O)O)CC1(Cc3ccc(C(=O)O)cc3C1)C2` (stereo not drawn), the GI50 was inactive: > 100 µM.

Turning to `CCN(CC)CCCC(C)Nc1c2ccc(Cl)cc2nc2cc(Cl)ccc12` (stereo not drawn), the GI50 was inactive: 4.5 µM.

Regarding `C[C@]12CC[C@H](OC(=O)Nc3ccccc3)CC1=CC[C@@H]1C2CC[C@]2(C)/C(=N/OC(=O)Nc3ccccc3)CCC12` (stereo partly drawn), the GI50 is inactive: > 100 µM.

For `O=c1oc2ccc(Cl)cc2cc1-c1cn2cc(Cl)ccc2n1`, the GI50 was inactive: > 54.3 µM.

Consider `CN(C)C(=O)C(F)(F)C(c1ccc(Br)cc1)C1C(=O)N(C)C(=O)N(C)C1=O` (stereo not drawn), for which the GI50 was inactive: > 100 µM.

For `c1cc2c(c(-c3c4ccccc4nc4ccccc34)c1)CC1(CC2)OCCO1`, the GI50 is inactive: > 100 µM.

Take `COc1ccc2cc(/C=N\NC(=O)Nc3cccc4ccccc34)ccc2c1`: the GI50 was inactive: 33 µM.

For `COc1cc2c(c3nc4ccccc4nc13)-c1ccc(SC)c(=O)cc1[C@@H](NC(C)=O)CC2`, the GI50 is active: 0.158 µM.

In the case of `CC(=O)Nc1ccc(-c2nnc(SCC(=O)Nc3ccccc3)o2)cc1`, the GI50 was inactive: > 100 µM.

For `OC1C[C@H](c2ccccc2)C2(C(O)c3ccccc3C2O)[C@@H](c2ccccc2)C1` (stereo partly drawn), the GI50 was inactive: > 100 µM.

For `Cc1cc(NC(=O)C(=O)Cc2nc3ccccc3s2)ccc1Cl`, the GI50 was inactive: > 58.5 µM.

Take `O=C1C=C/C(=C/[C@H]2SSC=C[C@]23C=CC(=O)C3)C1`: the GI50 was inactive: 29 µM.

As to `NC(CCCCNCc1ccccc1)C(=O)O` (stereo not drawn), the GI50 is inactive: > 100 µM.

As to `O=[N+]([O-])c1ccc2c(c1)C1=C(CO2)Cc2ccccc2O1`, the GI50 is inactive: 32.4 µM.

On to `CC(=N/NC(=S)Nc1c(C)n(C)n(-c2ccccc2)c1=O)/C(C)=N\NC(=S)Nc1c(C)n(C)n(-c2ccccc2)c1=O`, for which the GI50 was inactive: > 100 µM.

For the compound `CC(=O)NC1C(OCc2ccccc2)OC(CO)C(O)C1OC(C)C(=O)N[C@@H](C)C(=O)N[C@H](CCC(=O)OCCNc1c2ccccc2nc2cccc([N+](=O)[O-])c12)C(N)=O` (stereo partly drawn), the GI50 is active: 0.00284 µM.

Take `N#Cc1ccccc1NC(=O)C(O)C(O)C(O)C(O)C=O` (stereo not drawn): the GI50 was inactive: > 100 µM.

Consider `CCOC(=O)/C(=C/c1ccccn1)C(=O)c1ccccc1`, for which the GI50 is inactive: 16.9 µM.

As to `COc1ccc(NC2=NCCO2)c2c1CCCC2`, the GI50 is inactive: 37.6 µM.

As to `CN1C(Cl)=NS(=O)(=O)c2ccccc21`, the GI50 is inactive: > 100 µM.

On to `CCOC(=O)c1[nH]c2cc(OC)c(OC)cc2c1CN(C)C`, for which the GI50 is inactive: > 100 µM.

Take `C[C@H](CC[C@@H](O)C(C)(C)O)[C@H]1CC[C@@]2(C)[C@@H]3CC=C4[C@@H](CC[C@H](OC5OC(CO)C(O)C(O)C5O)C4(C)C)[C@]3(C)C(=O)C[C@]12C` (stereo partly drawn): the GI50 is inactive: > 100 µM.

On to `Cc1cc(C)n(-c2nc(-n3nc(C)cc3C)nc(-n3nc(C)cc3C)n2)n1`, for which the GI50 is inactive: > 100 µM.

Take `O=c1[nH]c2cc(F)c(F)cc2nc1Cc1ccccc1`: the GI50 was inactive: > 100 µM.

Regarding `CN1CCC(CN2c3ccccc3Sc3ccccc32)CC1`, the GI50 is inactive: 14.8 µM.

In the case of `O=CCOCc1cc2c(cc1Br)OCO2`, the GI50 was inactive: > 100 µM.

On to `O=C1C(Cl)N(c2c(Cl)cccc2Cl)C1c1c[nH]c2ccccc12` (stereo not drawn), for which the GI50 was inactive: > 100 µM.

As for `COc1ccc2nc3n(c2c1)CCc1cc(OC)c(OC)cc1-3`, the GI50 was inactive: 50.4 µM.

In the case of `CCOC(=O)C1=C(C)N(C)C(=S)NC1c1cccc(O)c1` (stereo not drawn), the GI50 was inactive: 27.9 µM.

With `O=N/N=c1\o[n-][n+](CCc2ccccc2)c1Cc1/c(=N/N=O)o[n-][n+]1CCc1ccccc1`, the GI50 was inactive: 30.3 µM.

Consider `CCOC(=O)C1(Cc2ccccc2)CCN(C(=O)c2ccccc2)C2C1C2(Cl)Cl` (stereo not drawn), for which the GI50 was inactive: 28.1 µM.

As to `C=CCNC(=O)N1CC(C)C(=O)Nc2ccccc21` (stereo not drawn), the GI50 is inactive: > 100 µM.

For `CC(=O)Oc1ccc2c(-c3ccccc3)c(Oc3ccc(Cl)cc3)c(=O)oc2c1`, the GI50 was inactive: 15.2 µM.

Turning to `Clc1ccc(OCc2nnc3sc(-c4ccc(-c5ccc(Cl)cc5Cl)o4)nn23)cc1`, the GI50 is inactive: > 100 µM.

Consider `O=[N+]([O-])c1ccc(NC(=S)Nc2ccccn2)cc1`, for which the GI50 was inactive: 33.8 µM.

Consider `COC1(OC)N=C(N)C2(C#N)C(C)CC(=O)N(N(C)C)C12C#N` (stereo not drawn), for which the GI50 was inactive: > 100 µM.

As to `Cc1nc2ccc(N)cc2nc1O`, the GI50 was inactive: > 100 µM.

With `CC12CC(c3ccccc3O1)C(C(=O)Nc1cccc(F)c1)C(=O)N2` (stereo not drawn), the GI50 was inactive: > 100 µM.

In the case of `O=C1NC2C=CN(Cc3ccccc3)C=C2C(=O)N2CCCC12` (stereo not drawn), the GI50 was inactive: > 100 µM.

Consider `O=C1NC2=C(CCCC/C2=N\O)C12CCCCC2`, for which the GI50 was inactive: > 100 µM.

Take `O=c1[nH]c(=O)n(C2OC3COC2C3O)cc1F` (stereo not drawn): the GI50 was inactive: > 100 µM.

Consider `CCOC(=O)/C=C(/C)Nc1nc2c(c(C(=O)OC)c1C#N)CCCC2`, for which the GI50 was inactive: > 100 µM.

`CC(=O)/N=C1/N(/C=C2\C(=O)Oc3ccccc3C2=O)C(=O)/C(=C/c2ccc(NC(C)=O)cc2)N1C`: the GI50 was inactive: > 100 µM.

`COc1ccccc1/C=C1\Sc2scc(-c3cccc([N+](=O)[O-])c3)[n+]2C1=O`: the GI50 was inactive: 16.3 µM.

Turning to `CN1c2ccccc2NC(CC(=O)O)C2CC=CN21` (stereo not drawn), the GI50 was inactive: > 100 µM.

As to `Cc1cnc(/N=c2\sc(C)cn2-c2ncc(C)s2)s1`, the GI50 is inactive: > 100 µM.

Turning to `CCOC(=O)/C=C(\N=P(c1ccccc1)(c1ccccc1)c1ccccc1)C(F)(F)C(F)(F)C(F)(F)C(F)(F)C(F)(F)F`, the GI50 was inactive: > 100 µM.

As for `CCOC(=O)CSc1c(C(=O)OCC)c(=O)n(-c2ccccc2)c(=S)n1-c1ccccc1`, the GI50 is inactive: > 100 µM.

For the compound `COc1ccc2c(c1)c1c(n2CCN(C)C)-c2ccccc2CC1`, the GI50 is inactive: 15.3 µM.

Turning to `CCCNc1[nH]c(C(=O)c2ccccc2)c(N)c1C(=S)Nc1ccccc1`, the GI50 is inactive: > 100 µM.

Regarding `CC1Cc2cc(O)c(O)cc2-c2cc(O)c(O)cc2CC1C` (stereo not drawn), the GI50 was inactive: 16.3 µM.

`O=C1CCC[C@]2(CCC[C@@H](O)C2)N1`: the GI50 is inactive: > 100 µM.

`Cc1ccc([N+](=O)[O-])cc1NC(=O)C(=O)Cc1occc(=O)c1O`: the GI50 was inactive: > 100 µM.

With `CC1(C)CCCCCC(C)(CCCO)C1=O` (stereo not drawn), the GI50 is inactive: > 100 µM.

As to `Cc1cc(NC(=O)C(=O)Cc2cnc3ccccc3n2)c(S(=O)(=O)O)cc1Cl`, the GI50 was inactive: > 100 µM.

With `COCC1OC(OC2C3=C(C(C)C)CCC3(C)/C=C3\C(CCC3(O)COC)C(C)C2O)C(O)C2OC3OC12OC3(C)C1CO1` (stereo not drawn), the GI50 was inactive: 44.2 µM.

`CC#C[C@@]1(O)CCCC[C@@H]1O`: the GI50 was inactive: > 100 µM.

On to `CCCCP1(=O)C=CC(Cl)=C(C)C1` (stereo not drawn), for which the GI50 is inactive: > 100 µM.

`Clc1ccc(C(SCc2ccccc2)SCc2ccccc2)cc1`: the GI50 is inactive: > 10 µM.

In the case of `CCCC1CCC(=C2C(=O)CCC2=O)O1` (stereo not drawn), the GI50 is inactive: > 100 µM.

Turning to `O=C1Cc2c(-c3ccccc3)cc(-c3ccccc3)nc2-c2ccccc2N1`, the GI50 was inactive: 5.56 µM.

For the compound `COc1ccc(/C=C2/C(=O)N(C(=O)c3ccccc3O)N=C2C)cc1OC`, the GI50 was inactive: 1.79 µM.

Consider `CN(C)CCn1c(=O)c2ccc3c4c(nn3CCN(C)C)c3cc([N+](=O)[O-])ccc3n(c1=O)c24`, for which the GI50 was active: < 0.0194 µM.

For the compound `Cc1nc2c(o1)/C(=N\c1ccccc1)c1ccccc1/C2=N/c1ccccc1`, the GI50 is inactive: > 100 µM.

For the compound `c1ccc([P+](CCCCCC[P+](c2ccccc2)(c2ccccc2)c2ccccc2)(c2ccccc2)c2ccccc2)cc1`, the GI50 is inactive: 24.8 µM.
